Test results from paper PMC10601815, “αβ,α′β′-Diepoxyketones are mechanism-based inhibitors of nucleophilic cysteine enzymes” (Chemical Communications (Cambridge, England), 2023).

Each molecule was assayed against SARS-CoV-2 Mpro (Severe acute respiratory syndrome coronavirus 2, UniProt P0DTD1) (assay: SARS-CoV-2 Mpro inhibition assay (37mer peptide substrate, SPE-MS)). Details: 15 min pre-incubation, 150 nM Mpro, 2 µM 37mer peptide.
Format: biochemical
Design: the main protease from SARS-CoV-2 (M^pro); made in house

Structure (SMILES) | pIC50 Mpro | IC50
COc1ccccc1C1OC1C(=O)C1OC1c1ccccc1OC (mixture of isomers) [DEK 5] | < 4.4 | 
Cc1cccc(C)c1C1OC1C(=O)C1OC1c1c(C)cccc1C (mixture of isomers) [DEK 8] | < 4.4 | 
O=C(c1ccccc1)C1OC1c1ccccc1 (racemic) [Epoxide 12, reference compound] | < 4.4 | 
Cc1cc(C)cc([C@@H]2O[C@H]2C(=O)[C@@H]2O[C@H]2c2cc(C)cc(C)c2)c1 (relative stereo) [DEK 7] | < 4.4 | 
O=C([C@H]1O[C@@H]1c1ccccc1)[C@@H]1O[C@H]1c1ccccc1 [DEK 1] |  | 25.1 µM
O=C(C1OC1c1ccc(OC(F)(F)F)cc1)C1OC1c1ccc(OC(F)(F)F)cc1 (stereo not shown) [DEK 4] | < 4.4 | 
O=C(C1OC1c1ccccc1OC(F)(F)F)C1OC1c1ccccc1OC(F)(F)F (stereo not shown) [DEK 6] | < 4.4 | 
O=C1C2(CCC13OC3c1ccccc1)OC2c1ccccc1 (stereo not shown) [DEK 9] | 5.9 ± 0.2 | 
O=C1C2(CCCC13OC3c1ccccc1)OC2c1ccccc1 (stereo not shown) [DEK 10] | < 4.4 | 
O=C1C2(CCCCC13OC3c1ccccc1)OC2c1ccccc1 (stereo not shown) [DEK 11] | < 4.4 | 
